Molecules are shown by their SMILES. Values joined by “and” are separate entries in the source; they are usually repeats but may differ in a detail not shown here. Equal values may be shown once. The whole screen tested about 48,000 compounds, of which about 1,200 (2.5%) were called active. About 2% were inconclusive and are not listed.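 Rule for the calls: active = activation of at least 60% and not above a set upper limit (about 1 call in 100 departs from these limits); inconclusive = activation of 40% to 60%, or above that upper limit; inactive = activation under 40%.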 Some of the results follow.

This assay addresses Probable G-protein coupled receptor 32 (Homo sapiens) (UniProt O75388). As to the kind of experiment: qHTS for Agonists of Human Resolvin D1 Receptor DRV1. To be noted: CHO-K1 GPR32 beta-arrestin PathHunter luminescence, 90 min; at 76.9 µM; stronger effect = higher value; zero percent set by DMSO-only wells. The source says: Endogenous resolution of inflammation is known to be transduced through various GPCRs and their natural mediators of lipid nature. Resolvin D1 (RvD1) is one of the active players in resolution of acute inflammation through regulation of anti-inflammatory pathways; it is known to enhance phagocytosis of human macrophages, limits neutrophils infiltration, etc. […] The search for GPR32-activating small molecules with anti-inflammatory effects similar to its natural omega-3 derivative ligand in order to use them as research tools for further studies of inflammation and its resolution was the goal of this screening project. For primary screening assay, we used CHO-K1 GPR32 beta-arrestin cell line (DiscoveRx, #93-0321C2A) and the PathHunter(R) beta-Arrestin Assay (DiscoveRx) which measures recruitment of beta-arrestin to the GPR32 and generates chemiluminescent signal. These engineered cells stably transfected with GPR32 co-express GPR32-fused small 42-amino acid fragment of beta-Gal called ProLinktrade mark, and […] -tagged beta-Arrestin fusion protein. When GPR32 is activated by a ligand, it stimulates binding of beta -Arrestin to ProLink-tagged GPR32, and two parts of beta-Gal complement forming a functional enzyme. Upon substrate (PathHunter(R) Detection reagent) addition, beta-Gal hydrolyzes it and generates a chemiluminescent signal.
Sequence of UniProt O75388 (O75388 whole entry, looked up): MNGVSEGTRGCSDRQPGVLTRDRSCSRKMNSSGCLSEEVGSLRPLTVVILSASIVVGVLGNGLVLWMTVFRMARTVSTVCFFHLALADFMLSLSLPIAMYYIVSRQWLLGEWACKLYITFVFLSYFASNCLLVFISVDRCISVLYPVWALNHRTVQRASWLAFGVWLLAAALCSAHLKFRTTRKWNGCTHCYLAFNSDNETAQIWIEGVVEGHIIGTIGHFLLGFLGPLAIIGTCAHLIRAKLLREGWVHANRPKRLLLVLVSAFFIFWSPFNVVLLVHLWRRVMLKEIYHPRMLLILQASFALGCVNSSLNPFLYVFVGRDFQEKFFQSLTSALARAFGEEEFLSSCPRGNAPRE
The cells were thawed and plated in thawing media containing F-12 HAM (Invitrogen, #11765-054), 10% FBS (Invitrogen, #10082), 1x Glutamine, and 1x Pen/Strep onto the 175-mm flask for 24 hours. Then, thawing media was replaced with Growth media which contains 800microg/mL Geneticin (Invitrogen, #10131) and 300microg/mL Hygromycin B (Invitrogen, #10687) in addition to described above. For the assay, the cells were harvested at ~80% confluent stage with Cell Dissociation buffer (Gibco, #13151), and seeded at 2,500 cells/ 3microL/well in assay media (PathHunter(R) Cell Plating Reagent, DiscoverX, #93-0563R1B) using MultiDrop Combi dispenser (Thermo Scientific, Logan, UT) onto white solid bottom tissue culture-treated 1536-well plates (Greiner # 789173-F) and allowed to attach overnight at 37 degrees C, 95% humidity, 5% CO2, . Next, 23nL/well of compound solutions in DMSO were added with a Pin Tool (Kalypsis, San Diego, CA) to the assay plates. As the basal control (EC0), 23 nL/well of DMSO was used on each plate. The cells were incubated in the presence of compounds or DMSO for 90 minutes at 37 degrees C, 5% CO2. Subsequently, 1.5microL/well of PathHunter(R) Detection Reagent prepared per the manufacturer's instructions was added to the assay plates with BioRAPTR FRDtrade mark dispenser (Beckman Coulter, San Francisco, CA) and incubated for 1 hour at ambient temperature prior to the measurement of the luminescent signal on ViewLux(R) uHTS Microplate Imager (Perkin Elmer, Waltham, MA).
For the molecule `Cc1cccc(-c2nc(CCNC(=O)Cc3ccc(F)cc3)cs2)c1`, the activation is inactive: -16%. As for `CCC(Nc1ccc(-c2nc(-c3ccco3)no2)cc1[N+](=O)[O-])c1ccccc1` (configuration not stated), the figure is inactive: -5.96%; as for `COc1ccccc1CNC(=O)Cn1c(=O)oc2cc(S(=O)(=O)N3CCC(C)CC3)ccc21`, active: 77.5%; as for `COc1ccccc1NC(=O)CSc1ccc(-c2sc(C)nc2C)nn1`, inactive: -6.95%. As for `COc1ccc(C2c3cccn3CCN2S(=O)(=O)c2ccccc2[N+](=O)[O-])cc1OC` (configuration not stated), the figure is inactive: -9.97%; as for `CC(C)(C)c1ccc(C(O)CCCN2CCC(C(O)(c3ccccc3)c3ccccc3)CC2)cc1` (configuration not stated), inactive: 10% and inactive: -15.1%. As for `CC(CNC(=O)Cn1ccc2cc(S(=O)(=O)N3CCCCC3)ccc21)c1ccccc1` (configuration not stated), the figure is inactive: 36.3%. Take `CCc1ccc2occ(CC(=O)Nc3c(C(=O)Nc4ccc(OC)cc4)oc4ccccc34)c2c1`: the activation was inactive: -3.68%. Take `O=C(NCc1ccccc1)c1nnc(Cc2cccc(F)c2)o1`: the activation was inactive: -5.23%.

For `CCc1ccc(CNC(=O)CCc2c(C)nn(-c3ccc(N4CCCCC4)nn3)c2C)cc1`, the activation is inactive: -20.7%. As to `O=C(NCC(c1ccc2c(c1)OCO2)N1CCOCC1)c1ccccc1F` (configuration not stated), the activation is inactive: -16.9%. Then `Cc1cc2nn(-c3ccc(F)cc3)nc2cc1NC(=O)c1ccc(OC(C)C)cc1`, with inactive: -12.7%. Then `CCOc1ccc(CCNC(=O)C2CCN(C(=O)N3CC(CC)Oc4ccc(C)cc43)CC2)cc1` (configuration not stated), with inactive: -15.4%; and `Cc1ccc2nc(Cl)c3cc(C(=O)N(C)C4CCCCC4)sc3c2c1`, with inactive: -0.325%; and `CCn1c(CNC(=O)c2ccc(OC)cc2)nnc1SCC(=O)Nc1cccc(C)c1C`, with inactive: 19%. Then `CCOC(=O)c1c(C)oc2nc(C)nc(NCC3CCN(Cc4cccc(C)c4)CC3)c12`, with inactive: -12.4%; and `COc1cccc(Cn2c(=O)n(-c3cccc(Cl)c3C)c(=O)c3c4c(sc32)CN(C(C)=O)CC4)c1`, with inactive: -12.8%; and `Cc1ccc(NC(=O)CSc2nc3ccc(NC(=O)c4cccs4)cc3s2)c(C)c1`, with inactive: -10.5%.

Regarding `CCNC(=O)CC1C(=O)N(c2ccccc2)C(=O)N1Cc1ccc(F)cc1` (configuration not stated), the activation is inactive: -3.17%.

In the case of `Cc1cccc(NC(=O)Cn2c(=O)n(Cc3ccc(C(=O)NCc4ccc5c(c4)OCO5)cc3)c(=O)c3ccccc32)c1`, the activation is inactive: 18.1%. On to `O=C(CCn1c(=O)c2cccn2c2ccc(F)cc21)NCc1ccccc1F`, for which the activation was inactive: -20.7%.

In the case of `Cc1ccc(NC(=O)CSc2nc(-c3ccc(F)cc3)cc(C(F)(F)F)c2C#N)cc1`, the activation was inactive: -10.4%. On to `CCOc1ccc(C(=O)c2cn(CC(=O)Nc3cc(OC)cc(OC)c3)c3ccc(F)cc3c2=O)cc1`, for which the activation is inactive: -0.755%. As for `COc1ccc(NC(=O)Cn2c(=O)oc3cc(S(=O)(=O)NC(C)C)ccc32)cc1OC`, the figure is inactive: -4.8%; as for `Cc1cccc(OCc2nnc(SCC(=O)Nc3ccc(C)cc3C)o2)c1`, inactive: -0.578%; as for `Cc1ccccc1Cn1c(SCc2ccc(C(=O)NCc3cccs3)cc2)nc2ccncc21`, inactive: -11.4%. Then `COc1ccc(S(=O)(=O)N(Cc2nc(-c3cccc(C)c3)no2)C2CCCCC2)cc1`, with inactive: -16.1%; and `Cc1ccccc1Cn1c(CCCNC(=O)C2CCCCC2)nc2ccccc21`, with inactive: 32.5%; and `Cc1nnc(N2CCC(C(=O)NC(C)C)CC2)c2nn(-c3ccc(Cl)cc3)c(C)c12`, with inactive: 6.67%. As for `CCCSCCCNC(=O)C1CCN(C(=O)c2cc3sccc3n2C)CC1`, the activation is inactive: -4.88%. As to `COc1ccccc1N1CCN(S(=O)(=O)c2ccc3c(c2)oc(=O)n3C)CC1`, the activation is inactive: -8.91%. As for `c1ccc2nc(C3=NCCN3)ccc2c1`, the figure is inactive: 3.87%; as for `CCCCOc1ccc(C2c3c(-c4ccccc4O)n[nH]c3C(=O)N2Cc2ccncc2)cc1OC` (configuration not stated), inactive: -27.8%; as for `O=C(Nc1nc(-c2ccc(Br)cc2)ns1)c1ccc(F)cc1`, inactive: -2.95%. With `O=S(=O)(c1ccc(-n2cnnn2)cc1)N1CCN(c2ccccc2F)CC1`, the activation was inactive: -2.41%. Then `CCN(CCCNC(=O)c1cc2c(=O)[nH]c3ccccc3c2s1)c1ccccc1`, with inactive: -11.8%; and `CCC1CCCCN1S(=O)(=O)c1ccc(NC(=O)c2cc(=O)c3ccccc3o2)cc1` (configuration not stated), with inactive: 8.2%.

On to `CCOc1ccc(-n2c(C)nc3c(cnn3-c3ccc(C)cc3)c2=O)cc1`, for which the activation is inactive: -14.8%. As for `Cc1c2cnn(CC(=O)NCc3ccccc3)c(=O)c2c(C)n1Cc1cccc(Cl)c1`, the activation was inactive: -8.12%. Consider `CC(=O)c1cccc(NC(=O)Cn2c(SCC(=O)Nc3ccc(F)cc3)nc3ccccc32)c1`, for which the activation is inactive: -6.31%.

As for `COCCCNC(=O)CSc1nc(-c2cccc(F)c2)[nH]c1-c1ccccc1`, the activation is inactive: -20.3%. Then `O=C(CN1CCN(Cc2ccccc2Cl)C1=O)NCc1ccccc1Cl`, with inactive: 7.87%; and `COc1ccc(-c2c(C#N)c(SCC(=O)Nc3ccccc3C)nc(C)c2C(=O)Nc2ccccc2)cc1OC`, with inactive: -19.4%; and `COc1ccc(CCN2C(=O)N(c3ccc(F)cc3)C(=O)C2CC(=O)Nc2ccccc2)cc1` (configuration not stated), with inactive: 26.7%. Then `Cn1cc(S(=O)(=O)c2ccccc2)c(=O)c2cc(F)c(N3CCOCC3)cc21`, with inactive: 1.72%; and `N#C/C(=C\c1ccc(Cl)cc1)C(=O)NCC1CCCO1` (configuration not stated), with inactive: 16.4%; and `COc1ccc2cc([S+]([O-])Cc3ncc(C)c(OC)c3C)nc2c1`, with inactive: 6%. On to `COc1cccc(N2CCN(C(=O)CCS(=O)(=O)c3ccc4c(c3)CC(=O)N4C)CC2)c1`, for which the activation is inactive: 44.8%. As for `O=c1oc2ccccc2n1CCCOc1ccccc1Cl`, the figure is inactive: 33.6%; as for `CS(=O)(=O)N1CCc2cc(C(=O)Nc3ccc(Cl)c(C(F)(F)F)c3)ccc21`, inactive: 10.7%; as for `CCN(CC)C(=O)Cn1c(=O)n(Cc2ccc(C(=O)NCc3ccc(C)cc3)cc2)c(=O)c2ccccc21`, inactive: -7.29%. Then `Cc1ncc(CO)c2c1Oc1nc(-c3ccccc3)nc(SCC(=O)N3CCCCC3)c1C2`, with inactive: -1.06%. On to `O=C(C1CCC(CNS(=O)(=O)c2ccc(Br)s2)CC1)N1CCN(c2ccccc2Cl)CC1` (configuration not stated), for which the activation is inactive: -15.6%.

As to `CCOc1cc2sc(N3CCC(C(=O)Nc4ccccc4C(=O)OC)CC3)nc2cc1Br`, the activation was inactive: 1.22%. As for `COc1ccc(NC(=O)Cn2c(=O)n(-c3cccc(C)c3)c(=O)c3c2c2cc(C)ccc2n3C)cc1Cl`, the figure is inactive: -5.86%; as for `Cc1ccc(NC(=O)c2cn3c4c(ccc(Cl)c4c2=O)OC(C)C3)cc1C` (configuration not stated), inactive: 4.01%; as for `CCOCCCNC(=O)c1cc2c(=O)n(C)c3ccccc3c2n1C`, inactive: 5.43%. With `O=C(COCc1cc(-c2cccs2)on1)Nc1cc(Cl)ccc1O`, the activation is inactive: 29.1%. As for `Cc1ccc(NC(=O)COc2ccc(-c3nn(C)c(=O)c4ccccc34)cc2)cc1`, the figure is inactive: 25.8%; as for `COc1ccc(C)cc1NC(=O)CN1C(=O)COc2ccc(S(=O)(=O)N3CCOCC3)cc21`, inactive: -13.6%. Then `COc1ccc(C(=O)Nc2cc(-c3ccccc3)nn2-c2ccccc2)cc1`, with inactive: -22.6%; and `CCOC(=O)c1sc(NC(=O)C(C)Oc2ccc(OC)cc2)c(C(=O)OCC)c1C` (configuration not stated), with inactive: -28.5%.

`CCOc1ccccc1NC(=O)Cn1c(=O)oc2cc(S(=O)(=O)NCc3ccccc3)ccc21`: the activation was inactive: -5.45%. Then `CN(C)c1ccc(CNC(=O)C2CCCN(S(=O)(=O)c3ccc4c(ccn4C)c3)C2)cc1` (configuration not stated), with inactive: 20.7%. As for `Cc1ccc(CNC(=O)C2CCN(S(=O)(=O)Cc3ccccc3)CC2)cc1`, the figure is inactive: 15.9%. As for `Cc1nc(-c2ccc(OCC(C)C)c(C#N)c2)sc1C(=O)O`, the figure is inactive: -4.21%. Take `COC(=O)C1=C(C)NC(=O)C1(NC(=O)c1ccc(Cl)cc1)C(F)(F)F` (configuration not stated): the activation was inactive: -6.51%. As for `COc1ccc(C2N=C(N)Nc3nc4ccccc4n32)c(OC)c1OC` (configuration not stated), the activation was inactive: -1.17%. As for `CCN1CCC(N(Cc2cccc(OC)c2)C(=O)Nc2cccc(C)c2C)CC1`, the figure is inactive: -2.86%. Then `CC1=Nc2cc(C(=O)NCc3ccc(C)cc3)ccc2Sc2ccc(Cl)cc21`, with inactive: -22.9%; and `Clc1ccc(N2CCN(Cc3c[nH]c4ncccc34)CC2)cc1`, with inactive: 10.4%; and `Cc1nn(-c2ccccc2)c(OC(=O)c2ccccc2Cl)c1S(=O)(=O)c1ccccc1`, with inactive: -2.46%.

Take `CCOc1ccc(-n2cc(-c3ccccc3)c3c(NC4CCCCC4)ncnc32)cc1`: the activation was inactive: -14.2%. As for `Cc1ccc(CNC(=O)CCS(=O)(=O)c2ccc3c(c2)CC(C)N3C(=O)C2CC2)cc1` (configuration not stated), the activation was inactive: -1.76%. As for `CCOc1ccc(NC(=O)CSC2=Nc3ccccc3C3=NC(CCC(=O)NCc4cccs4)C(=O)N23)cc1` (configuration not stated), the figure is inactive: -8.6%.

As for `CCOc1ccc(-c2nnc(SCC(=O)NCc3ccc(C)cc3)nc2-c2ccc(OCC)c(OC)c2)cc1OC`, the activation was inactive: -7.02%.

Consider `COc1ccc2c(c1)c1c(c(=O)n(-c3cccc(Cl)c3)c(=O)n1CC(=O)NCC1CCCO1)n2C` (configuration not stated), for which the activation is inactive: -7.62%. Turning to `COCCNC(=O)Cn1cnc2sc(C)c(S(=O)(=O)N3CCN(c4ccccc4OC)CC3)c2c1=O`, the activation is inactive: 1.51%.

Consider `CCc1nn2c(=O)cc(COC(=O)c3ccccc3NC(=O)COc3ccc(F)cc3)nc2s1`, for which the activation was inactive: -15.9%. As for `COc1cc(CNCCSc2nnnn2C)ccc1OCc1ccc(F)cc1`, the figure is inactive: 2.63%; as for `CC(CNC(=O)c1nnc(Cc2cccc(F)c2)o1)c1ccccc1` (configuration not stated), inactive: -3.41%.

Take `CCOC(=O)c1[nH]c(C)c(CCC(=O)Nc2cccc(C(F)(F)F)c2)c1C`: the activation is inactive: -11.2%.

The values are drawn from PubChem BioAssay AID1346428 (National Center for Advancing Translational Sciences (NCATS), 2018).
